The values below come from paper PMC10726135.

This is one part of the list. At the low end of the ranking, values are background and their order means little. Measured with an extract: partners may take part in the binding.

The assay deals with T1, HNF4alpha2 (COS-7 nuclear extract) (UniProt P41235).
T1 sequence: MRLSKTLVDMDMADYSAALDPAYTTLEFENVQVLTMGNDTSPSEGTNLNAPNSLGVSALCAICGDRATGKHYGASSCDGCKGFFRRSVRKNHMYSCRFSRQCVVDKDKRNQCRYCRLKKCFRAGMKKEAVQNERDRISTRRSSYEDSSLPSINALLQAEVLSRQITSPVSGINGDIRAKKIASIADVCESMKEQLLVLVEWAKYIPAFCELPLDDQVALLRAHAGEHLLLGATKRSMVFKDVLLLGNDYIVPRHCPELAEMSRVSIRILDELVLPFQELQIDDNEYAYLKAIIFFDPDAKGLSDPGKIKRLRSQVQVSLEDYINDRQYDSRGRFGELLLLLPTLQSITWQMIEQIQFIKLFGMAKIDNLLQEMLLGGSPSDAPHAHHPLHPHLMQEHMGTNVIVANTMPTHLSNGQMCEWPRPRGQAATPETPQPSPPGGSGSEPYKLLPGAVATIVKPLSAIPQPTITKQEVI
The assay can be described thus: protein-binding microarray. Conditions: COS-7 nuclear extract on double-stranded Agilent 4x180k PBM; binding buffer, salt, pH and temperature not given; high values mean tight binding; double strand, one strand shown; sequences stand for … in …GCCTAGGGAGATTAGAGTATCGGTCGA
Turning to ATGATAACCCCCGTCACTGCAAGGCAAACA, the binding signal (log2 normalized intensity) came out at 3.56.

Turning to GTCTCCTTTCAAGGCAGATTTCTGTCTTTG, the binding signal (log2 normalized intensity) turned out to be 0.579.

Turning to CTAAGCTTGTAGACCAAGGAGGCCTCTTCC, the binding signal (log2 normalized intensity) is -1.11.

For the sequence TATCAGTGTTGACCTCTGGACCTCATCTTC, the binding signal (log2 normalized intensity) turned out to be 5.36.

Regarding ACGTGCAGCAATAGGTCAGAGGACACCCGG, the binding signal (log2 normalized intensity) is -1.16.

As for AGACTGCCATTCCAGAAGTAGGATGGGGAG, the binding signal (log2 normalized intensity) is -1.1.

Regarding CCAGGCAATCAGCCTTAGGTATGCCCCATG, the binding signal (log2 normalized intensity) came out at 0.155.

On to AAGGGTCAATGTGATCAGGTGTGGGCATTA, for which the binding signal (log2 normalized intensity) is 1.62.

In the case of TCCCCCAACCCCACCTTCATTCTTCATGGG, the binding signal (log2 normalized intensity) stood at 3.34.

Regarding AGAGCAAAGGTGATCTGCTGGAATGAAGAC, the binding signal (log2 normalized intensity) was -1.08.

With ACCCAGAGAATGCTAGACAAGGGAATTACT, the binding signal (log2 normalized intensity) was -1.24.

Take AACTCTCTGTGGATGTATGTCCAGATAACT: the binding signal (log2 normalized intensity) was determined as 1.55.

As to TAACAAAAATATCACAATCCTTAAGCAGCA, the binding signal (log2 normalized intensity) was -1.1.

Turning to TCAACTTTCAACATTTAACTTAACCACTCA, the binding signal (log2 normalized intensity) is -0.00171.

In the case of CATTTGAGTACATGCCTCTCCCAGTGGAAT, the binding signal (log2 normalized intensity) worked out at 1.19.

Turning to CTGGCTGCCCTGGGGATCAAAGCGTATGGG, the binding signal (log2 normalized intensity) was -0.735.

AGTTCAATTTCCAACAAATGAAACTAAAGG: the binding signal (log2 normalized intensity) is -1.15.

CAAATAGACTGGTTTGCACAGGTTACACAG: the binding signal (log2 normalized intensity) is -1.13.

In the case of TGGGCAATGTCAACAAATACTGACCTGAGA, the binding signal (log2 normalized intensity) is 0.677.

For CCTCCAGCTCTTGGGGAACAATCGCCACTG, the binding signal (log2 normalized intensity) was -1.19.

With CCTGCCTCAGGCCGACCCCTGCCTGGACTG, the binding signal (log2 normalized intensity) was 1.99.

Take CCTTCATGTTTTCACCAAGAGGGAAAAGAT: the binding signal (log2 normalized intensity) amounted to 0.499.

Consider CAGGGAATGAGAATGGCCAGAGTTCCTGTG, for which the binding signal (log2 normalized intensity) was -1.06.

For the sequence AACAGACAAATGAAAGAGCTCAAATGACAG, the binding signal (log2 normalized intensity) is -1.04.

Consider GGGCCCTCTTCCAGCTGAGACAAGGTCCAG, for which the binding signal (log2 normalized intensity) is 0.827.

For the sequence ATGATCTTGCTCTCTTGTGCTCATGACAAA, the binding signal (log2 normalized intensity) was determined as 1.23.

For AGTCTTAACCTCCTCTGTCACGATTCTTTT, the binding signal (log2 normalized intensity) amounted to 1.52.

Regarding ATCTGACCTTTGGGACATTCCCCAGGCTGC, the binding signal (log2 normalized intensity) was 2.91.

In the case of CTCGGGTGTTCACAGGTGACCTCTGGCCAC, the binding signal (log2 normalized intensity) was found to be 4.24.

For the sequence TCCTGATCTTTGACCTGGAGCATGACCCTT, the binding signal (log2 normalized intensity) was found to be 4.86.

Regarding GGGAGATAAGGCCCGGCTGATGGGACCAAA, the binding signal (log2 normalized intensity) was -1.17.

Take CACAAAGCTTGGGTTCACATTCCAGCTCTG: the binding signal (log2 normalized intensity) was -0.321.

On to TCTTCGAAGACACAAAGCTTGGGTTCACAT, for which the binding signal (log2 normalized intensity) is 2.05.

In the case of GAAAGCAAGGGCCAGATCAAAGGCTTCTAG, the binding signal (log2 normalized intensity) is -1.12.

Regarding TCCGGGCGATCCGGGCTCCGGGCGCCGCGC, the binding signal (log2 normalized intensity) is -1.05.

In the case of ACTTATCTCAGCCTGGCTAAAACCCTGGCC, the binding signal (log2 normalized intensity) is -1.17.

With CCCAGGTCACCCACAACCTACCCTTTGCCC, the binding signal (log2 normalized intensity) was determined as 3.99.

Take GGCATTTCACAGAGCAAGGGTCCAGATTAG: the binding signal (log2 normalized intensity) came out at 2.46.

In the case of ACACACACACACACAGCTTGGAGCTCCTTG, the binding signal (log2 normalized intensity) is -1.1.

For GTCGCTTGCCAGTATGCCACTGGTTAGTTC, the binding signal (log2 normalized intensity) amounted to 0.519.

With GCTGCCAAACTGCCCAGCAGAAAAGCTGTA, the binding signal (log2 normalized intensity) is -1.04.

In the case of GAAATGGGACCCAACTTTTGCTCTCTGGGA, the binding signal (log2 normalized intensity) was -1.12.

Consider TTGACCTTCAGCATCTTCAACTGTGTGAGC, for which the binding signal (log2 normalized intensity) came to 2.61.

With TTCCCTAAGATTCTGGTCAAAGGTCAATGA, the binding signal (log2 normalized intensity) is 7.36.

Take GACCTAGGTGAGCAGGCAGAGGTCAATGTC: the binding signal (log2 normalized intensity) is 2.96.

As for ACAGTTTTGTGTGTTTAATGTTTTCATTCT, the binding signal (log2 normalized intensity) is 1.93.

On to TGGGACCAAAGGTGAAGGGGTCACCTCGCT, for which the binding signal (log2 normalized intensity) amounted to 2.83.

Consider TTGCACCTGGGCTGGAAAGGCCACCACAAA, for which the binding signal (log2 normalized intensity) is -1.13.

Turning to TGCTGCCGCATTTTCCTTTGTTGGTTTTGC, the binding signal (log2 normalized intensity) came to 1.1.

Consider ACCCTGTTTTGTAAACTCCCTTTGATGCGG, for which the binding signal (log2 normalized intensity) is 0.875.

TGATGCATCAGACCCCTGAGTTTCGCAGCT: the binding signal (log2 normalized intensity) amounted to 2.16.

As for GGTGAGCTTTTATCTTAAGTGAGGTGGAAA, the binding signal (log2 normalized intensity) stood at 1.3.

Regarding TGACCCCAGGGGAAACTCCATTTCCTTCTA, the binding signal (log2 normalized intensity) is -0.479.

Regarding GTCTTAGTATTAACGGTGAGGGAGGAGACT, the binding signal (log2 normalized intensity) was -1.19.

In the case of AAACCAAACTGCAGCTGCTGCACTGATAAG, the binding signal (log2 normalized intensity) is -1.18.

Consider GAATCAATGCCTGATTCCAAAGTCCACTTT, for which the binding signal (log2 normalized intensity) amounted to 6.91.

Turning to AGAGGCAAGGAAAGATAAATAGTGACAAAT, the binding signal (log2 normalized intensity) was -1.08.

Take TGACCCCTAGCACTTCCCGAGTGAGGCAAT: the binding signal (log2 normalized intensity) turned out to be 1.62.

Consider CTCTCATTGGAATGAGCCTCCTGAAGATCC, for which the binding signal (log2 normalized intensity) worked out at 0.558.

Consider AAAAGGGGACCGGCCTTTCCCGGCTGCCTA, for which the binding signal (log2 normalized intensity) is -1.16.

Turning to AGACTTCAAAGCATTCCACATTCTCCACTG, the binding signal (log2 normalized intensity) was -1.27.

Consider GACCTTTATATGTCCACCTTATCTAATGCC, for which the binding signal (log2 normalized intensity) stood at 1.15.

As to AGCAATCTTGAGGTTTCCACTGATAAAGTT, the binding signal (log2 normalized intensity) was determined as 1.11.

With TATTTAGACTCAGCATGTCTTCTGACCTTT, the binding signal (log2 normalized intensity) came out at 6.51.

Take GGAGAGCTGGACTTTCATCTGAGTCTCAGC: the binding signal (log2 normalized intensity) came out at 1.85.

For AAAGGCGTTTGCTCCCATCCCCCCAAAGGC, the binding signal (log2 normalized intensity) is 4.99.

AGAACTATCAAACATTTTTGCAACATGAGG: the binding signal (log2 normalized intensity) turned out to be 0.408.

Take CCCTCTCCTTTGGTGCAAATACCATCCCCA: the binding signal (log2 normalized intensity) turned out to be 3.45.

Turning to CTAAACCTCTGCACACAGGATGTTTTCTCT, the binding signal (log2 normalized intensity) was -0.0899.

Consider GTCACTTCTGCTGCATTCTATTGGTCAAAG, for which the binding signal (log2 normalized intensity) is 1.36.

Consider CTTGTCTAAAAACATTGTGGAGCTCATGTA, for which the binding signal (log2 normalized intensity) was found to be 1.55.

Turning to TTTTCTTTTGGCATCTGTTGCTCAAGGAGG, the binding signal (log2 normalized intensity) is 1.36.
